# Assay results: PubChem BioAssay (NCI)
#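 Cultured in 96-well plates, cells were exposed to test compound for 48 hours across five concentrations. At the GI50, growth is halved. Definition used: TGI = concentration required for complete inhibition of growth.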
# Tested on: NCI-H322M lung
# Test: NCI tumour cell line growth inhibition, 48 h
SMILES,GI50 [µM],TGI [µM]
O=C(Cc1c(-c2ccccc2[N+](=O)[O-])n(-c2ncnc3c2c(-c2ccccc2)c(-c2ccccc2)n3Cc2ccccc2)[nH]c1=O)c1ccc(Cl)c(Cl)c1,23,> 100
Cc1ccc2nc3c(nc2c1)c1cc(I)ccc1n3CCN(C)C,4.91,18.5
CCN1C(=O)N(CC)C2NNC(Sc3c(C(=O)O)c4ccccc4n(C4CCCC4)c3=O)=NC21 (stereo not given),6.61,49.5
C=C1CC[C@@H]2[C@]3(C)COC(c4cn[nH]c4-c4ccc(OC)cc4)O[C@@H]3CC[C@@]2(C)[C@@H]1C/C=C1/C(=O)OCC1O (stereo not given in full),4.17,27.4
Nc1nn2c(-c3cc4cc(Br)ccc4oc3=O)ccnc2c1N=Nc1ccccc1,2.45,7.42
